In this data set the test system is ATP. Briefly: switch fluorescence ratio, 500 uM ATP over buffer (Cy3 cluster intensity, sum of 5 cycles each) (fold (ratio)); higher = stronger signal-on switching upon ATP binding; sequences stand for … in TCGTCGGCAGCGTCAGATGTGTATAAGAGACAGTTTTTTTTTTTTTTTTTTTTTTTTT…TC. The note with it: aptamer strand: ATP DNA aptamer (quencher-CACCTGGGGGAGTATTGCGGAGGAAGG + anchor), 100 nM annealed; ATP concentration: 500 uM; one replicate. Summed up:
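The quencher-labelled ATP aptamer, at 100 nM, was annealed to Cy3-labelled switching-strand clusters on a modified Illumina MiSeq flow-cell. The clusters were imaged in selection buffer, then after 15 min with 500 uM ATP at 22 °C, and this buffer/ATP cycle ran five times with NaOH stripping and re-annealing between runs. Per-cluster fluorescence ratios, summed target-cycle over summed buffer-cycle Cy3 intensity, were averaged per switch-domain sequence. Clusters outside 100-1000 RFU were excluded.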

Sequences with one replicate were seen in a single cluster, so their values are uncertain.
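Also: ATP exposure 15 min at 22 °C before imaging.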

Consider AATCGCGCCT, for which the switch fluorescence ratio amounted to 1.05. The value for CGGTAAAGGG was 0.978.

As for GAAGTATGGC, the switch fluorescence ratio was 1.13. To TGCATGTT belongs 0.983; to AAGGCGGAAG, 0.991.

ATCCTGAGAC: the switch fluorescence ratio was 1.07. As to ATTGCGGTTG, the switch fluorescence ratio was 1. For ACTCTAGGGT, the switch fluorescence ratio was found to be 1.14. The value for AGACCTGAAT was 0.979. The value for AGCGGACTGA was 1.02. The value for ATTAGTTGTT was 1.02. Consider CTTGAAATGT, for which the switch fluorescence ratio stood at 1.02. The value for TAGTACTTAT was 1.03; that for GGCATGCATA was 0.974. To GCGGACGGGG belongs 0.996; to ATATCTCAAC, 1.01; to AGTTCGTAGG, 0.993. To CTGATAGAT belongs 1.01. In the case of GGGCCAGCCT, the switch fluorescence ratio was determined as 1.01. The value for TTTTTATG was 1.02.

Turning to GCGGCAACAA, the switch fluorescence ratio came to 1.01. The value for CGTTTCGTTC was 1.03. To AAATAAGAAT belongs 1.01. The value for TTGGATTAAT was 1.01; that for AATAGGGAAC was 1.04; that for TGACGTAGAA was 1.07. With ATCGCTATAT, the switch fluorescence ratio came to 1.82. To ATGGGTGATG belongs 0.993; to ATAGGCTCTA, 1.01; to ACGGGACAAC, 1.2. To CAGTTTTCAC belongs 0.976; to CTTTTGTGAA, 0.967. With AGTTATCGAG, the switch fluorescence ratio was 0.966.

For the sequence GATTAAGGGA, the switch fluorescence ratio was 1.01. The value for GGTTGACTAT was 0.999; that for TACCAGCTCC was 1.09. The value for TCATGCAGGG was 1.02; that for CGTCATAGTG was 0.981.

On to TTAATGGCAC, for which the switch fluorescence ratio came out at 1.07. With AGAGATTCGT, the switch fluorescence ratio worked out at 1. As to TCGCGATGTA, the switch fluorescence ratio was found to be 1.02. To AAGCACATT belongs 1.11. With ATGGTGATTC, the switch fluorescence ratio was 1.03. The value for GGGTCTCAAG was 1.14. The value for ATGCTCTACG was 0.972. Take TAGAGGGAGA: the switch fluorescence ratio was 0.982. The value for GGAGAGCCCG was 0.98.

On to ATTATACGT, for which the switch fluorescence ratio amounted to 1.02.

Take ATCTCACGCC: the switch fluorescence ratio was found to be 1.17. The value for ATATTGGCGT was 0.965; that for TCCACGACTT was 0.988. To ATTCTGTCAG belongs 0.997; to TAATTTCACC, 0.997; to TGTGCGGACT, 1.04. The value for ACCCGTTAAA was 1.03.

For the sequence TATGACGTTT, the switch fluorescence ratio came out at 1.04.

With GCAACGTGGC, the switch fluorescence ratio is 1.03. On to TCTGGCGCAG, for which the switch fluorescence ratio came to 1.06. As to GTAATAGAAT, the switch fluorescence ratio worked out at 0.973.

As to GGGATCCAG, the switch fluorescence ratio amounted to 1. To TCGCCTAAG belongs 1.02; to ACGAGCGGCT, 1.08; to GGGTGAGTTG, 0.962. The value for ACGTGGGGAT was 1.01; that for CAGTCCAGCA was 1.11; that for AGTCTTGATG was 0.954.

On to TTGGCTATTC, for which the switch fluorescence ratio was determined as 1.08. To TACTGTTA belongs 1.06; to GCTGGTCAAA, 0.959; to TCGATTTCTC, 0.965. To GCGCGTTGGG belongs 1.02. For the sequence GCGTACCCAT, the switch fluorescence ratio is 1.

In the case of ATCGTTCAGT, the switch fluorescence ratio was 0.976. The value for TTTCGACTAG was 1.01. CCGCGCTATG: the switch fluorescence ratio was determined as 2.5. The value for TCGTTGGGA was 0.995; that for CGGAGTCGC was 1.07; that for CTATCCTAAG was 1.02. The value for TGTATTACAC was 1.03; that for AACGCGGCTT was 0.971; that for CAGTCACAGA was 0.983.

In the case of AGTGAGTATA, the switch fluorescence ratio amounted to 1.02.

With GACTTGGCCC, the switch fluorescence ratio was found to be 0.998. The value for AGGTTTGTAT was 1.01. The value for CGCGGCACGT was 1.04; that for ATGTAGGCGA was 1.01. The value for ATACAAGCAA was 1.52; that for GGCCACTCCT was 1.03. For the sequence ATCTCAACTT, the switch fluorescence ratio worked out at 1. The value for AAACCGAAAT was 1.33. The value for TCGCTGATGG was 1.03. To GCGGAACCT belongs 1.95; to ATATAGTCA, 0.987.

For the sequence GACTGGTAGA, the switch fluorescence ratio amounted to 0.978.

Turning to GCGTGAGTCC, the switch fluorescence ratio is 1.01. To ATATGGGGTA belongs 0.903. The value for TCGATGTCCA was 0.985; that for CGGTCAAAAG was 0.962; that for CTGGGGGGAA was 1.05. Consider AGATGTCCCT, for which the switch fluorescence ratio came out at 1.04. The value for AACTGTACT was 1.57. To TCGGTTATAT belongs 0.975; to GACATCGATA, 1.01; to GCGGAACCTT, 0.953. Turning to AAACAAACCG, the switch fluorescence ratio is 1.05. To CATTTTCTCG belongs 0.994; to TAGGGCACGT, 1.06; to CATTCACTTC, 1.1. To GTAAGCCTTT belongs 0.985; to TGGCACTTTA, 1.01. The value for TCCACCAGA was 1.21; that for CAGGTAGGC was 1.05; that for GGCAATTGGT was 1. Consider CCGATTTGCG, for which the switch fluorescence ratio is 1.06. On to ACATTCGAAA, for which the switch fluorescence ratio came out at 1.03.

On to ATGCGCTTCA, for which the switch fluorescence ratio amounted to 0.999. The value for GGATATATAG was 0.978; that for GAAGGTCTGA was 1.03. The value for TCCGTGGTGT was 1.27; that for GTGAGAAGCA was 0.963.

The values are drawn from the supplement of paper PMC10126150.
